Where “and” joins values, the source holds several entries; their conditions need not be identical. Equal entries are not always repeated. Screen size: about 270,000 compounds; about 5,800 (2.1%) were called active. Another 16% or so got no clear call; they are omitted. The call rests on the fitted dose curve; in most records, active means well fitted inhibition curve with a large enough effect; inconclusive means small, poorly fitted or top-dose-only effect; inactive means flat fitted curve, though single readings scatter. The list shows a part of the results, in another mix than the full data. A structure can be active in one record and inactive in another.
Target: Microtubule-associated protein tau (Homo sapiens) (UniProt P10636)
UniProt P10636, sequence (P10636 whole entry, looked up): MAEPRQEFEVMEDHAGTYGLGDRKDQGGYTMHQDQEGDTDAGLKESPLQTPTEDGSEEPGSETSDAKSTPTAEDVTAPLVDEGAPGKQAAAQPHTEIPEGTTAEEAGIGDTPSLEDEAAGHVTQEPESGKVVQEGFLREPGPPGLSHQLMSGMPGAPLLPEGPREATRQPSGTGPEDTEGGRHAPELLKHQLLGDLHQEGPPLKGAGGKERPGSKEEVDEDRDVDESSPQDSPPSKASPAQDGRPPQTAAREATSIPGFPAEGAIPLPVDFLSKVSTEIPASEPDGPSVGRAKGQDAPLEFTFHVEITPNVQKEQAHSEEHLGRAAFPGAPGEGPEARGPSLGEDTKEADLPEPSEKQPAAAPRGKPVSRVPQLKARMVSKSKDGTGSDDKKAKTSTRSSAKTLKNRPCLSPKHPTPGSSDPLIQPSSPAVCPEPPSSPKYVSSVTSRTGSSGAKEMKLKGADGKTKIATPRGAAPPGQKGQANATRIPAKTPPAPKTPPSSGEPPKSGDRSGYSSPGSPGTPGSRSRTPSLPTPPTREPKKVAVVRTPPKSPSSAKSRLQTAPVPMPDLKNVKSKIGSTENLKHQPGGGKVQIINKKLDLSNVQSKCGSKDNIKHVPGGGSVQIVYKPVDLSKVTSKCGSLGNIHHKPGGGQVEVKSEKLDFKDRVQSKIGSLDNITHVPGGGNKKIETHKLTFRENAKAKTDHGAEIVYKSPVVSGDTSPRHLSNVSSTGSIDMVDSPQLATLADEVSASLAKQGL
Assay: qHTS for Inhibitors of Tau Fibril Formation, Thioflavin T Binding; further: nearly all actives have a fitted effect of over 55% in size
Details: recombinant tau K18 P301L (four-repeat tau fragment), heparin-induced fibrillization, ThT fluorescence; series mostly up to 57.4 µM; activity, negative = inhibition: at the top concentration
Excerpt: NIH Molecular Libraries Probe Production Network [MLPCN]
NIH Chemical Genomics Center [NCGC]
Assay Provider: Carlo Ballatore, University of Pennsylvania
The microtubule-associated protein tau is an abundant protein in the axons of neurons that stabilizes microtubules. With its ability to modulate microtubule dynamics, tau contributes directly or indirectly, to key structural and regulatory cellular functions. Particularly important is the influence tau exerts on axonal transport, which allows signaling molecules, trophic factors and other essential cellular constituents to travel along the axons. Under pathological conditions, tau becomes sequestered into insoluble aggregates called neurofibrillary tangles. This phenomenon is believed to have pathological consequences by promoting axonal transport deficits that ultimately lead to synaptic dysfunction and neuronal loss. To identify inhibitors of tau aggregation, a heparin-induced tau fibril formation assay was used that employed a recombinantly expressed fragment of tau, K18 (Q242-E372), bearing a P301L mutation (Gustke et al. 1994; Hong et al. 1998). This assay monitors tau fibrillization by Thioflavin T (ThT) fluorescence.
Gustke, N., B. Trinczek, et al. (1994). "Domains of tau protein and interactions with microtubules." Biochemistry 33(32): 9511-22.
Hong, M., V. Zhukareva, et al. (1998).
Li, W. and V. M. Lee (2006).
von Bergen, M., S. Barghorn, et al. (2001). "Mutations of tau protein in frontotemporal dementia promote aggregation of paired helical filaments by enhancing local beta-structure." J Biol Chem 276(51): 48165-74.
NCGC Assay Protocol Summary:
For screening, 2 uL/well human K18 P301L (15 uM unlabeled and 0.24 uM Alexa 594-labeled tau, final concentrations) in reagent buffer (100 mM sodium acetate pH 7) was dispensed into black solid 1536-well plates (Grenier) using a solenoid-based dispenser. Following transfer of 23 nL compound or DMSO vehicle by a pin tool, 2 uL/well heparin (20 uM final concentration) in reagent buffer was added and the plate centrifuged 15 s at 1000 RPM. Plates were incubated 6 hr at 37 C and then 1 uL/well ThT (30 uM final concentration) was added. After a 1 hr ambient incubation, the plates were read by an Envision (Perkin Elmer) to monitor ThT fluorescence (450/8 nm excitation and 510/23 nm emission).
Keywords: NIH Roadmap, MLPCN, MLI, MLSMR, NCGC, qHTS, tau, tauopathies, Alzheimer's disease, fibril, neurodegeneration, aggregation
On the % scale 0 is the no-effect control and ±100 the full control effect; potency means the concentration at half of the fitted maximal effect.

Compound | Potency | activity, negative = inhibition
COc1cc2cc(CN(Cc3nnnn3Cc3ccco3)C3CCCCC3)c(=O)[nH]c2cc1OC | active: 15.8 µM | –
Cc1ccc(NC(=O)c2cccc(N(C)C)c2)cc1NC(=O)c1ccc(O)cc1 | – | inactive: 4.57%
C[C@@H](C(=O)NCCc1c[nH]c2ccccc12)[C@@H]1C[C@@]1(C)[C@@H](NC(=O)OCc1ccccc1)c1ccccc1 | – | inactive: 17.2%
COc1ccc(/C=C/C(=O)C2C(=O)C=C(C)OC2=O)cc1O (stereo not drawn) | active: 25.1 µM | –
Cc1cc(C)c2c(=O)n(CC(=O)NC3CCCC3)sc2n1 | active: 12.6 µM | –
COC(=O)[C@@H]1CC[C@H](C)[C@@H](c2ccc(C)cc2)N1C(=O)c1ccc(/C=N\OC[C@@H](O)COCc2ccco2)cc1 | – | inactive: -12.9% [at 11.5 µM]
CC(C)=CCC/C(C)=C/CC/C(C)=C/CO | inactive | –
CCCSc1nc(O)c(C(c2ccc(OC)c(O)c2)c2c(O)nc(SCCC)n(C)c2=O)c(=O)n1C | active: 3.98 µM | –
CCOC(=O)c1c(-c2ccccc2)csc1NC(=O)c1cc(-c2cccc(OC)c2)on1 | active: 31.6 µM | –
C=CC[n+]1c(-c2ccc(OCC)cc2)csc1NNC(=O)Nc1ccccc1 | active: 12.6 µM | –
Cc1ccc(N=C2NC(=O)/C(=C/C=C/c3ccco3)S2)cc1 | active: 6.31 µM | –
CC(=O)OC1C[C@]2(C)[C@@H](CC(O)C3[C@]4(C)CCC(O)C(C)[C@@H]4CC[C@]32C)/C1=C(/CCC=C(C)C)C(=O)O (stereo partly drawn) | – | inactive: -4.64%
C=C1CC[C@H](O)C/C1=C/C=C1\CCC[C@]2(C)C([C@H](C)CCCC(C)(C)O)CC[C@@H]12 (stereo partly drawn) | – | inactive: -14.5%
COC(=O)[C@@H]1CC[C@H](C)[C@@H](c2ccc(C)cc2)N1C(=O)c1ccc(/C=N\O[C@@H](C)c2cn([C@H]3COC[C@H]3O)nn2)cc1 | – | inactive: -1.54% [at 11.5 µM]
Cc1cccc(OCC(=O)NC(Cc2c[nH]c3ccccc23)C(=O)O)c1C (stereo not drawn) | – | inactive: -13.9%
COc1ccc(-n2cnc3cc(C(=O)NC4CCCC4)ccc32)cc1 | – | inactive: -9.05%
C#C[C@]1(O)CC[C@H]2[C@@H]3CCc4cc(O)ccc4[C@H]3CC[C@@]21C | – | inactive: -17.4%
C=CCCCCCCCCCCCC(O)CC(O)COC(C)=O (stereo not drawn) (tested in a mixture with another compound) | – | inactive: -19.1%
O=C(Nc1ccc(Cl)cn1)c1ccc(-c2cc(Cl)ccc2Cl)o1 | active: 7.94 µM | –
O=[N+]([O-])c1ccc(/C=N\N2CCN(c3ccc(Cl)cc3)CC2)cc1 | active: 2.24 µM | –
CCOC(=O)c1cccnc1SCC(=O)N(CC)c1cccc(C)c1 | – | inactive: 3.1%
CC1OC(n2cc(F)c(=O)[nH]c2=O)C(O)C1O (stereo not drawn) | – | inactive: 1.75%
CN=c1scc(-c2ccc(F)cc2)n1/N=C/c1ccc(O)c(O)c1 | active: 10 µM | –
Cc1ccccc1NC(=O)NCCc1c[nH]c2ccccc12 | – | inactive: -9.56%
CCOc1ccc(N=C(/C(C(=O)C(=O)N2CCOCC2)=C(/O)c2ccccc2)c2ccccc2)cc1 | – | inactive: -14.9%
COc1cc(/C=N/N2C(=O)CSC2=S)ccc1O | active: 14.1 µM | –
CC(=C/c1ccc(C(C)C)cc1)/C=N/NC(=O)c1ccncc1 | – | inactive: -8.5%

Compound | Potency | activity, negative = inhibition
CCOc1cccc(C(=O)Nc2ccc3oc(-c4cccnc4)nc3c2)c1 | – | inactive: -18.9%
CC1=NN(c2nc(-c3ccc(C)cc3)cs2)C(=O)C1N=Nc1cccc(O)c1 (stereo not drawn) | active: 1.78 µM | –
COC(=O)CCCC1=CC2=CC(=O)C(C)(OC(=O)c3cccs3)C(=O)C2=CN1Cc1ccccc1 (stereo not drawn) | – | inactive: 1.47% [at 11.5 µM]
CCCCC1=CC2=C(c3ccco3)C(=O)C(C)(OC(=O)c3ccc(OC)cc3)C(=O)C2=CN1CCN1CCOCC1 (stereo not drawn) | – | inactive: -14.4% [at 11.5 µM]
O=c1c(-c2ccc(O)cc2)coc2cc(O)ccc12 | inactive | –
CCO[C@H]1OC(C(=O)N2CCN(Cc3ccc4c(c3)OCO4)CC2)=C[C@@H](C2CCCCC2)[C@@H]1CCCO | – | inactive: -8.22%
COC(=O)/C=C1/N/C(=N\c2nc(C)cc(C)n2)N(c2ccccc2)C1=O | – | inactive: 4.34%
COC(=O)c1ccc(CN2[C@H](C(=O)OC)C[C@@]3(O)[C@H](O)[C@H](O)[C@H](O)C[C@@H]23)cc1 | – | inactive: -5.43%
O=C(c1ccc(Br)o1)N(Cc1ccccc1)Cc1ccccc1 | – | inactive: -20.1% [at 81.4 µM]
COc1ccccc1NC(=O)Nc1nc(-c2cccnc2)nc2ccccc12 | – | inactive: -7.74%
CC(=O)n1cc([C@H]2C=C(C(=O)Nc3ccccc3)O[C@@H](OCc3ccc(CO)cc3)C2)c2ccccc21 | – | inactive: -1.03%
COc1cc(/C=C2/SC(=Nc3ccc(O)cc3)NC2=O)ccc1O | active: 4.47 µM | –
CO[C@H]1COC(=O)[C@H](C)NC(=O)C/C=C\[C@@H](C)[C@H](OC)COC(=O)C/C=C\[C@@H]1C | – | inactive: -5.55% [at 11.5 µM]
O=C1C[C@@H](O)[C@@H](O)[C@H]2[C@@H]3C(=O)N(C4CCCCC4)C(=O)[C@@H]3CC[C@H]12 | – | inactive: -0.0941% [at 11.5 µM] and inactive: -9.03% [at 11.5 µM]
COc1ccc(NC(=O)c2ccc(Br)o2)cc1 | – | inactive: -4.08%
C[C@@H](C(=O)NCc1ccc(S(C)(=O)=O)cc1)[C@@H]1C[C@@]1(C)[C@@H](NC(=O)OCc1ccccc1)c1ccccc1 | inactive | –
O=c1[nH]c2cc(C(F)(F)F)ccc2n1-c1cc(C(F)(F)F)ccc1O | inactive | –
COc1ccc2c(c1)O[C@H](c1ccc3c(c1)OCO3)[C@@H](OC(=O)N[C@H](C)C1CCCCC1)C2=O | inactive | –
C/C(=C\c1ccccc1)C1NC(=O)c2c(sc3c2CCCC3)N1 (stereo not drawn) | active: 3.55 µM | –
Cc1nn(-c2ccccc2)c2[nH]c(=O)c(CNc3ccc(N4CCOCC4)cc3)cc12 | active: 17.8 µM | –
C1CCc2nnnn2CC1 | inactive | –
C[C@@H](CCc1ccc(O)cc1)NCCc1ccc(O)c(O)c1 | – | inactive: -20.5%
Cc1nnc(N/N=C/c2cc([N+](=O)[O-])c(N3CCC(C)CC3)cc2N2CCC(C)CC2)n1N | active: 17.8 µM | –
CCCc1cc(=O)[nH]c(SCC(=O)N2CCN(c3ccccc3)CC2)n1 | – | inactive: -4.14%
COc1ccc(-c2ccc3c(N)c(C(=O)c4ccc(OC)c(OC)c4)sc3n2)cc1 | – | inactive: -17.4%
CC(=O)OCC(=O)C1CCC2C3CCC4=CC(=O)CC[C@@]4(C)C3CC[C@]12C (stereo partly drawn) | – | inactive: -13.9%
